PMC4336329 (PLoS ONE, 2015)
Hit rate of the full screen: of about 310,000 compounds, about 2,200 (0.71%) showed an effect of 50% or more. The effect is printed as a negative number. Some of the results follow.

The compounds below were run against human ether-à-go-go-related gene (hERG) potassium channel (human, UniProt Q12809) (assay: primary screen, population patch clamp on CHO cells stably expressing hERG).
Sequence of human ether-à-go-go-related gene (hERG) potassium channel (Q12809 whole entry, looked up): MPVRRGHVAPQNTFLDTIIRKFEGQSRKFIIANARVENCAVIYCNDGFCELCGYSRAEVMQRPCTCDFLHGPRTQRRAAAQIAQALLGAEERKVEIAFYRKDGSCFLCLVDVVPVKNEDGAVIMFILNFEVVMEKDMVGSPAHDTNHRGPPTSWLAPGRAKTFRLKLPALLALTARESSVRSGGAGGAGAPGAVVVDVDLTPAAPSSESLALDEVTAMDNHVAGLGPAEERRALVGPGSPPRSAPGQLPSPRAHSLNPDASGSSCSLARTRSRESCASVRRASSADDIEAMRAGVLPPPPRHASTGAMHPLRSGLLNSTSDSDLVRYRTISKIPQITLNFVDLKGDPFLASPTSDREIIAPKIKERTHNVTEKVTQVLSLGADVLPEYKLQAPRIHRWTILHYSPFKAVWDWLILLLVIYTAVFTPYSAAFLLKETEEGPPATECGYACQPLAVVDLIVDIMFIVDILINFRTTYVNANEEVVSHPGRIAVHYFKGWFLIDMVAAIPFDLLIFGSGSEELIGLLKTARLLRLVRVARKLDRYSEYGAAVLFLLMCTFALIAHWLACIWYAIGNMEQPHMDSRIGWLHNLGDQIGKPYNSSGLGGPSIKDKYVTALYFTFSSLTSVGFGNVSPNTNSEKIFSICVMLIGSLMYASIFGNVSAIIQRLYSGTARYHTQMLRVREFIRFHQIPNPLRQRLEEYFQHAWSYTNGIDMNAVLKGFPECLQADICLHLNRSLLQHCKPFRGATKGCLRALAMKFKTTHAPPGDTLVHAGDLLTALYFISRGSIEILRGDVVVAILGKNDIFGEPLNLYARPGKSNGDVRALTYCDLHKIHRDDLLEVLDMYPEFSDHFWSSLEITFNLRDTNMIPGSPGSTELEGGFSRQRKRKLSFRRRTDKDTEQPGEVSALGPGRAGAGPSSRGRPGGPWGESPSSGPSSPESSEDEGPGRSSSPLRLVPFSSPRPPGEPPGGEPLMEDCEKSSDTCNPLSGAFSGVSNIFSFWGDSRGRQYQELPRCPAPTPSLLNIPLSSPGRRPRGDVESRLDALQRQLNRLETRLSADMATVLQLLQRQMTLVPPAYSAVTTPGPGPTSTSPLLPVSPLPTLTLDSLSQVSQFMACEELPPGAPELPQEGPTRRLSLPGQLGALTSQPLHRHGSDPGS

SMILES | hERG current change (%, negative = inhibition) at 1uM
C/C(=N\OC(=O)c1ccc(OC(C)C)cc1)c1ccc(C)c(C)c1 | 4.2%
O=S(=O)(Cc1ccccc1)N1CCc2ccccc21 | -6.02%
CCCCOc1ccc(NC(=O)Nc2nnc(C)s2)cc1 | 14.8%
Cc1ccc(NC(=O)OCC(F)(F)C(F)F)cc1NC(=O)OCC(F)(F)C(F)F | -10.8%
Cc1ccc2c(c1)N(CC(=O)NCCC1=CCCCC1)C(=O)c1cccnc1O2 | 8.18%
O=C1C2C3C=CC(C3)C2C(=O)N1c1cccc2ccccc12 (stereo not shown) | 16.2%
Cc1[nH]c2ccccc2c1C(=O)COC(=O)Cn1cnc2ccccc21 | 5.78%
O=C(CN1CCN(Cc2ccc(F)cc2)C1=O)NCc1cccs1 | 10.9%
CCc1ccc(N/C(=N/c2nc(C)cc(C)n2)NC(C)=O)cc1 | -12.8%
Nc1ncnc2nc(SCC(=O)Nc3ccccc3F)[nH]c12 | 7.53%
Cc1ccc(NC(=O)CCC(C(=O)O)N2C(=O)c3ccccc3C2=O)cc1 (stereo not shown) | -5.52%
Cc1cccc(Nc2nc(N)nc(CN3CCN(C)CC3)n2)c1 | -5.33%
CC1CN(c2cc(=O)n(Cc3ccc(F)cc3)c(=O)[nH]2)CC(C)O1 (stereo not shown) | 8.05%
CC(=O)Nc1ccc(Cl)cc1C1COC(=O)C1=N (stereo not shown) | 8.41%
Cc1cc(=O)[nH]c(SCc2nnnn2-c2ccc(Cl)cc2)n1 | 6.44%
CC(Nc1nc(-c2ccccc2F)nc2ccccc12)c1ccccc1 (stereo not shown) | 8.7%
CCOC(=O)c1cccc(NC(=O)CN(C)S(=O)(=O)c2cnc[nH]2)c1 | 17.3%
COc1ccc(-c2noc(CN(C)S(=O)(=O)c3ccc(C)cc3)n2)cc1 | -11%
C[C@H](NC(=O)c1ccccc1Cl)C(=O)OCC(=O)N1CCN(c2ccccc2)CC1 | 4.48%
Cc1nnc(NC(=O)CSc2ccccc2N)s1 | 13.3%
Cc1coc(C)c1C(=O)CC1(O)C(=O)N(Cc2ccccc2)c2ccccc21 (stereo not shown) | 8.31%
COc1ccccc1C(=O)NCc1ccc(-c2nc3ccccc3s2)cc1 | -9.11%

SMILES | hERG current change (%, negative = inhibition) at 1uM
O=C(COC(=O)CNC(=O)c1ccc(Cl)c([N+](=O)[O-])c1)NCC1CCCO1 (stereo not shown) | 3.8%
CC(=O)c1ccc(NS(=O)(=O)c2cc3c(cc2C)N(C)CCO3)cc1 | 11.5%
CN(C)N=Nc1nc2c([nH]1)c(=O)n(C)c(=O)n2C | 6.51%
Cc1ccc(S(=O)(=O)NCC(=O)NCC(=O)OCC(=O)N2CC(=O)Nc3ccccc32)cc1C | 4.07%
CCOc1ccc(NC(=O)CN(C)C(=O)CN2C(=O)NC3(CCCC3)C2=O)cc1OCC | 8.23%
Cc1ccccc1N1CC(C(=O)Nc2nnc(SCCC3OCCO3)s2)CC1=O (stereo not shown) | 16.7%
COc1ccc(S(=O)(=O)Nc2cc(C)on2)cc1 | 13%
CSc1ccc(CNC(=O)c2c(C)noc2C)s1 | 13.9%
Cc1cccc2cncc(OCc3nnc(SC(F)F)n3C)c12 | 3.98%
CC1CC2OC(=O)C3(C)CCCC(C)(C23)C1(O)CCc1ccoc1 (stereo not shown) | -3.14%
NS(=O)(=O)c1ccc(NC2=CC(c3ccc([N+](=O)[O-])cc3)N(c3ccc(S(N)(=O)=O)cc3)C2=O)cc1 (stereo not shown) | 3.9%
Cc1nn(C)c(C)c1N1C(=O)c2cccc3c(Br)ccc(c23)C1=O | 9.1%
CCN(CC(=O)NCc1cccs1)C(=O)c1ccc(-c2cccc(C(F)(F)F)c2)o1 | -57.4%
O=C(O)CCCCNS(=O)(=O)c1ccc(Cl)c(C(F)(F)F)c1 | 16.2%
CN(C)[C@@H]1C(=O)C(C(N)=O)=C(O)[C@@]2(O)C(=O)C3=C(O)c4c(O)cccc4[C@@](C)(O)[C@H]3[C@H](O)[C@@H]12.[Ca] | 3.53%
CCCNS(=O)(=O)c1ccc2c(c1)CCCN2C(C)=O | 5.08%
Cc1ccc(OCC(=O)NNC(=O)c2ccc3c(=O)n4c(nc3c2)CCC4)cc1 | 13.8%
Brc1ccc(-c2nnc(-c3cccnc3)o2)cc1 | 3.32%
CSc1nc(O)c(C(c2cccc([N+](=O)[O-])c2)c2c(O)nc(SC)[nH]c2=O)c(=O)[nH]1 | 11.8%
Cc1ccnc2nc(C(=O)N3CCN(S(=O)(=O)c4ccccc4)CC3)nn12 | 13.4%
CCOC(=O)N1CCc2c(sc3c2C(=O)NC(c2ccccc2)N3)C1 (stereo not shown) | 13.6%
COc1ccc(-c2nc(C#N)c(N3CCC(C(N)=O)CC3)o2)cc1OC | -3.83%

SMILES | hERG current change (%, negative = inhibition) at 1uM
CN1CC2=Cc3ccccc3OC23Oc2ccccc2C=C3C1 | -3.81%
O=C1CC(C(=O)Nc2ccccc2)N=C(N2CCCCC2)N1 (stereo not shown) | 1.61%
COc1ccc(N=Nc2c(C)n[nH]c2C)cc1 | 10.2%
C=CCSc1nc2c(sc3nc(C)cc(C)c32)c(=O)[nH]1 | 19.6%
O=C(c1cc(S(=O)(=O)N2CCOCC2)ccc1F)N(CCc1ccccc1)Cc1ccccc1 | 5.98%
CCC(C)(C)C(=O)Nc1cc([N+](=O)[O-])ccc1Cl | -4.14%
CC1CCN(C(=O)COC(=O)c2ccc3c(c2)OCO3)CC1 | 8.66%
Cc1cccc(OCc2occc2C(=O)Nc2cccc(-n3cnnn3)c2)c1 | 14%
Cc1ccc(CN(C(=O)CNC(=O)c2cccs2)C(C(=O)NCC2CCCO2)c2ccccc2)cc1 (stereo not shown) | 11.2%
CCOc1ccccc1CNC(=O)Cn1ccc2cc(S(=O)(=O)N3CCCCCC3)ccc21 | 13.2%
O=C1S/C(=C\c2ccc(O)c([N+](=O)[O-])c2)C(=O)N1c1ccccc1Cl | -13.4%
COc1ccc2oc(=Nc3ccc(C(=O)O)cc3)c(C(=O)NCc3ccco3)cc2c1 | 3.49%
CCCOc1cccc(C(=O)Nc2ccc3c(c2)OCCO3)c1 | 11%
COc1ccc(S(=O)(=O)N2CCc3ccccc32)cc1C(=O)OCc1nnc(-c2ccccc2)o1 | 12.8%
CC1(C)OC(=O)C(=CNc2ccc(F)cc2)C(=O)O1 | 3.35%
CCCCCCc1c(O)nc(SCC(=O)O)[nH]c1=O | 8.83%
Cc1ccc(S(=O)(=O)NC(=O)NCCCN2CCOCC2)cc1 | 9.45%
CSc1nnc(-c2ccc(S(=O)(=O)N3CCOCC3)cc2)n1C | -5.27%
O=[n+]1c2c(n([O-])c3cc(F)c(N4CCCC4)cc31)CCCC2 | 10.7%
CCCn1c(=O)c(C(=O)NC(C)c2ccccc2)c(O)c2ccccc21 (stereo not shown) | 13.5%
Cc1c(NC(=O)c2cnn3c2NC(c2ccccc2)CC3C(F)(F)F)c(=O)n(-c2ccccc2)n1C (stereo not shown) | -6.34%
O=C(Nc1ccc(Cl)cc1Cl)c1cc2ccccc2o1 | 7%

SMILES | hERG current change (%, negative = inhibition) at 1uM
CN(C(=O)c1ccc(NC(=O)Cc2ccc(NC(=O)C3CCN(C(=O)C4CC4)CC3)cc2)cc1)C1CC1 | 15%
C/C(=C\c1ccccc1)C1Nc2cccc3cccc(c23)N1 | 13.8%
COc1ccc(CNC(=O)CSc2nnc3c(n2)[nH]c2ccc(OC)cc23)cc1 | 11.1%
Cc1ccc(CNC(=O)C2CCN(S(=O)(=O)N3CCCC3)CC2)cc1 | 9.35%
COc1ccc(OCCC(=O)OCC(=O)NCCc2ccccc2)cc1 | 6.35%
COc1cc(/C=C/C(=O)OCC(=O)Nc2c(C)n(C)n(-c3ccccc3)c2=O)ccc1OCC#N | 15.8%
CCC(C)NS(=O)(=O)c1ccc(OC)c(Cl)c1Cl (stereo not shown) | 10.2%
Clc1nc2c(ccc3ccccc32)[nH]1 | -0.367%
Cc1ccc(S(=O)(=O)N2CCCC2C(=O)Nc2ccc(O)cc2)cc1 (stereo not shown) | 5.75%
CC(C)(C)C(=O)COC(=O)CCc1nc2ccccc2[nH]c1=O | 17.5%
O=C(O)c1cccc(CN2C(=O)CSC2=O)c1 | 14.7%
N#Cc1ccccc1OCC(=O)OCC(=O)NC1CCCCCC1 | 7.72%
Cc1nc(CC(=O)Nc2nc(C(C)(C)C)cs2)cs1 | 3.25%
CCN(CC)CCn1c2c(c(SCC(=O)Nc3ccc4c(c3)OCO4)nc1=O)CCC2 | -4.69%
CCCCNC(=O)CSc1nnc(Cc2ccc(Cl)c(Cl)c2)c(=O)[nH]1 | 10.6%
COc1cc(CN(CC2CCCO2)C(=O)c2cccs2)cc(OC)c1OC (stereo not shown) | 15.7%
Cl.Cn1c(=O)c2c(nc(N3CCCCC3)n2CCCNC2=NCCCC2)n(C)c1=O | 9.98%
CCn1nc(C)c(/C=N\NC(=O)c2cccc(OC)c2)c1C | 9.37%
OCCCc1cn(Cc2ccccc2)c2ccccc12 | 8.5%
CCS(=O)(=O)N1Cc2ccccc2CC1C(=O)Nc1nccs1 (stereo not shown) | 5.8%
Cc1ccc(C(C(=O)NCc2ccc(F)cc2)N(C(=O)c2csnn2)C2CC2)cc1 (stereo not shown) | 5.22%
CC(C)CN(Cc1cc(=O)oc2cc3c(cc12)CCCC3)CC(C)C | 13.1%
